From article PMC12820563, “FoxP3 forms a head-to-head dimer in vivo and stabilizes its multimerization on adjacent microsatellites”
Some of the results follow.

What follows are sequences tested against T1, MBP-FoxP1dN (Mus musculus, UniProt P58462 326-579) (assay: PD-seq (MBP pull-down with sequencing); 20 mM Tris-HCl pH 7.5, 100 mM NaCl, 1.5 mM MgCl2, 0.4 uM protein, 0.1 uM dsDNA library, 30 min, room temperature, amylose pull-down; high values mean tight binding). Conditions: protein: recombinant; tags: His6-MBP; chain copies: 2; dsDNA, one strand shown.
T1 sequence: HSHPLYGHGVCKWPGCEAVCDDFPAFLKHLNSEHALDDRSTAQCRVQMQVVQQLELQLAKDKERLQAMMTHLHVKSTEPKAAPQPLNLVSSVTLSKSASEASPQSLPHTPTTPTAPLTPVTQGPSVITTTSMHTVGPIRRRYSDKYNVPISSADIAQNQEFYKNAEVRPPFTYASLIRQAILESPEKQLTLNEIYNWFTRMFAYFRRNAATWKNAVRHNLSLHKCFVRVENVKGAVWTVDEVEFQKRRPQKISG
In short: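 The N-terminus-lacking fragment of mouse FoxP3 or FoxP1 carried a His6-MBP tag and was expressed in E. coli. At 0.4 µM it was incubated with 0.1 µM Klenow-filled degenerate double-stranded DNA library for 30 min at room temperature in Tris pH 7.5 buffer with NaCl and MgCl2, and complexes were caught on amylose resin, washed three times, released with proteinase K, PCR-barcoded and Illumina-sequenced. Binding is reads-per-million enrichment of pull-down over input with replicates pooled.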
In the case of “GATGATTGTTCTCCCAGCTGATGAATTTTCGCTGTCGAGTAAACAAATTTTCCTAATCTTTCTGTTCAAGCGCCATCTAC”, the binding signal is reported as 0.829 RPM ratio (pull-down/input). For “GATGATTGTTCTCCCAGCTGATGAATTCACACTATCGAGTAAACAAATTTTCCTAATCTTTCTGTTCAAGCGCCATCTAC”, the binding signal was 1.02 RPM ratio (pull-down/input). In the case of “GATGATTGTTCTCCCAGCTGATGAATTAATGGAGTCGAGTAAACAAATTTTCCTAATCTTTCTGTTCAAGCGCCATCTAC”, the binding signal is reported as 0.872 RPM ratio (pull-down/input). With “GATGATTGTTCTCCCAGCTGATGAATTGCTCGTGTCGAGTAAACAAATTTTCCTAATCTTTCTGTTCAAGCGCCATCTAC” the binding signal was 0.971 RPM ratio (pull-down/input). With “GATGATTGTTCTCCCAGCTGATGAATTGTAGGCGTCGAGTAAACAAATTTTCCTAATCTTTCTGTTCAAGCGCCATCTAC” the binding signal was 1 RPM ratio (pull-down/input). With “GATGATTGTTCTCCCAGCTGATGAATTACCGTCTTCGAGTAAACAAATTTTCCTAATCTTTCTGTTCAAGCGCCATCTAC” the binding signal was 0.947 RPM ratio (pull-down/input). In the case of “GATGATTGTTCTCCCAGCTGATGAATTGCCCTCGTCGAGTAAACAAATTTTCCTAATCTTTCTGTTCAAGCGCCATCTAC”, the binding signal is reported as 0.855 RPM ratio (pull-down/input). In the case of “GATGATTGTTCTCCCAGCTGATGAATTCACGGGATCGAGTAAACAAATTTTCCTAATCTTTCTGTTCAAGCGCCATCTAC”, the binding signal is reported as 0.827 RPM ratio (pull-down/input). “GATGATTGTTCTCCCAGCTGATGAATTGGCGACATCGAGTAAACAAATTTTCCTAATCTTTCTGTTCAAGCGCCATCTAC” was tested, and the binding signal was 0.972 RPM ratio (pull-down/input). “GATGATTGTTCTCCCAGCTGATGAATTCCAGGGCTCGAGTAAACAAATTTTCCTAATCTTTCTGTTCAAGCGCCATCTAC” was tested, and the binding signal was 0.734 RPM ratio (pull-down/input). In the case of “GATGATTGTTCTCCCAGCTGATGAATTGCGCCAATCGAGTAAACAAATTTTCCTAATCTTTCTGTTCAAGCGCCATCTAC”, the binding signal is reported as 1.11 RPM ratio (pull-down/input). In the case of “GATGATTGTTCTCCCAGCTGATGAATTAAAGTATTCGAGTAAACAAATTTTCCTAATCTTTCTGTTCAAGCGCCATCTAC”, the binding signal is reported as 1.04 RPM ratio (pull-down/input). “GATGATTGTTCTCCCAGCTGATGAATTCACACCGTCGAGTAAACAAATTTTCCTAATCTTTCTGTTCAAGCGCCATCTAC” was tested, and the binding signal was 0.899 RPM ratio (pull-down/input). In the case of “GATGATTGTTCTCCCAGCTGATGAATTGCTACATTCGAGTAAACAAATTTTCCTAATCTTTCTGTTCAAGCGCCATCTAC”, the binding signal is reported as 1.21 RPM ratio (pull-down/input). With “GATGATTGTTCTCCCAGCTGATGAATTTTCGATTTCGAGTAAACAAATTTTCCTAATCTTTCTGTTCAAGCGCCATCTAC” the binding signal was 1.06 RPM ratio (pull-down/input). With “GATGATTGTTCTCCCAGCTGATGAATTTGGCGTGTCGAGTAAACAAATTTTCCTAATCTTTCTGTTCAAGCGCCATCTAC” the binding signal was 0.932 RPM ratio (pull-down/input). In the case of “GATGATTGTTCTCCCAGCTGATGAATTGTCCACTTCGAGTAAACAAATTTTCCTAATCTTTCTGTTCAAGCGCCATCTAC”, the binding signal is reported as 0.978 RPM ratio (pull-down/input). For “GATGATTGTTCTCCCAGCTGATGAATTCCCTTGTTCGAGTAAACAAATTTTCCTAATCTTTCTGTTCAAGCGCCATCTAC”, the binding signal was 0.835 RPM ratio (pull-down/input). “GATGATTGTTCTCCCAGCTGATGAATTAATTTTTTCGAGTAAACAAATTTTCCTAATCTTTCTGTTCAAGCGCCATCTAC” was tested, and the binding signal was 0.943 RPM ratio (pull-down/input). “GATGATTGTTCTCCCAGCTGATGAATTCAATAACTCGAGTAAACAAATTTTCCTAATCTTTCTGTTCAAGCGCCATCTAC” was tested, and the binding signal was 1.17 RPM ratio (pull-down/input). In the case of “GATGATTGTTCTCCCAGCTGATGAATTGTTCCAATCGAGTAAACAAATTTTCCTAATCTTTCTGTTCAAGCGCCATCTAC”, the binding signal is reported as 1.22 RPM ratio (pull-down/input). In the case of “GATGATTGTTCTCCCAGCTGATGAATTACGTTTTTCGAGTAAACAAATTTTCCTAATCTTTCTGTTCAAGCGCCATCTAC”, the binding signal is reported as 1.23 RPM ratio (pull-down/input). “GATGATTGTTCTCCCAGCTGATGAATTCCGTGTGTCGAGTAAACAAATTTTCCTAATCTTTCTGTTCAAGCGCCATCTAC” was tested, and the binding signal was 0.919 RPM ratio (pull-down/input). For “GATGATTGTTCTCCCAGCTGATGAATTCCGTTCCTCGAGTAAACAAATTTTCCTAATCTTTCTGTTCAAGCGCCATCTAC”, the binding signal was 0.754 RPM ratio (pull-down/input). For “GATGATTGTTCTCCCAGCTGATGAATTGGAAGCATCGAGTAAACAAATTTTCCTAATCTTTCTGTTCAAGCGCCATCTAC”, the binding signal was 1.05 RPM ratio (pull-down/input). In the case of “GATGATTGTTCTCCCAGCTGATGAATTCGGGGATTCGAGTAAACAAATTTTCCTAATCTTTCTGTTCAAGCGCCATCTAC”, the binding signal is reported as 0.822 RPM ratio (pull-down/input). For “GATGATTGTTCTCCCAGCTGATGAATTGGATCTTTCGAGTAAACAAATTTTCCTAATCTTTCTGTTCAAGCGCCATCTAC”, the binding signal was 0.852 RPM ratio (pull-down/input). For “GATGATTGTTCTCCCAGCTGATGAATTCTGATGCTCGAGTAAACAAATTTTCCTAATCTTTCTGTTCAAGCGCCATCTAC”, the binding signal was 1.06 RPM ratio (pull-down/input). For “GATGATTGTTCTCCCAGCTGATGAATTAGTTCTTTCGAGTAAACAAATTTTCCTAATCTTTCTGTTCAAGCGCCATCTAC”, the binding signal was 0.939 RPM ratio (pull-down/input). In the case of “GATGATTGTTCTCCCAGCTGATGAATTCAGACCTTCGAGTAAACAAATTTTCCTAATCTTTCTGTTCAAGCGCCATCTAC”, the binding signal is reported as 0.799 RPM ratio (pull-down/input). With “GATGATTGTTCTCCCAGCTGATGAATTACAATCCTCGAGTAAACAAATTTTCCTAATCTTTCTGTTCAAGCGCCATCTAC” the binding signal was 1.21 RPM ratio (pull-down/input). With “GATGATTGTTCTCCCAGCTGATGAATTCCGAGTTTCGAGTAAACAAATTTTCCTAATCTTTCTGTTCAAGCGCCATCTAC” the binding signal was 0.777 RPM ratio (pull-down/input). With “GATGATTGTTCTCCCAGCTGATGAATTCCGTTGATCGAGTAAACAAATTTTCCTAATCTTTCTGTTCAAGCGCCATCTAC” the binding signal was 0.963 RPM ratio (pull-down/input). In the case of “GATGATTGTTCTCCCAGCTGATGAATTTGGGACCTCGAGTAAACAAATTTTCCTAATCTTTCTGTTCAAGCGCCATCTAC”, the binding signal is reported as 0.812 RPM ratio (pull-down/input). “GATGATTGTTCTCCCAGCTGATGAATTACGGACATCGAGTAAACAAATTTTCCTAATCTTTCTGTTCAAGCGCCATCTAC” was tested, and the binding signal was 1.02 RPM ratio (pull-down/input). “GATGATTGTTCTCCCAGCTGATGAATTTCAAAATTCGAGTAAACAAATTTTCCTAATCTTTCTGTTCAAGCGCCATCTAC” was tested, and the binding signal was 0.891 RPM ratio (pull-down/input). In the case of “GATGATTGTTCTCCCAGCTGATGAATTAAATTGGTCGAGTAAACAAATTTTCCTAATCTTTCTGTTCAAGCGCCATCTAC”, the binding signal is reported as 0.81 RPM ratio (pull-down/input). With “GATGATTGTTCTCCCAGCTGATGAATTGCTACAGTCGAGTAAACAAATTTTCCTAATCTTTCTGTTCAAGCGCCATCTAC” the binding signal was 1.11 RPM ratio (pull-down/input). In the case of “GATGATTGTTCTCCCAGCTGATGAATTACCAGTTTCGAGTAAACAAATTTTCCTAATCTTTCTGTTCAAGCGCCATCTAC”, the binding signal is reported as 0.973 RPM ratio (pull-down/input). For “GATGATTGTTCTCCCAGCTGATGAATTAACTACTTCGAGTAAACAAATTTTCCTAATCTTTCTGTTCAAGCGCCATCTAC”, the binding signal was 0.969 RPM ratio (pull-down/input).
